# In the supplement of paper PMC8728848:
# The list shows a part of the results.
# B1: CLECb-Precomplexed (Mus musculus), P43025 (protein)
# chain: MAKNGLVLCILVVSLLLDQTDGYPSRMKARKHSKRRVKAKDDDLKSQVEKLWREVNALKEMQALQTVCLRGTKVHKKCYLASEGLKHYHEANEDCISKGGTLVVPRNSDEINALRDYGKRSLPGVNDFWLGINDMVTEGKFLDVHGFAVSFLNWDRAQPSGGKRENCVLFSQSAQGKWSDEACRSSKRYICEFIIPTRTRPLEQKLISEEDLAANDILDYKDDDDKV
# How the values were obtained:
# Test in all cases: glycan array binding signal (z-score within array); higher = stronger binding
# Details in all cases: glycan notation: IUPAC condensed, linker removed
# Gal(a1-3)Gal(b1-3)GlcNAc = molecular target: Gal(a1-3)Gal(b1-3)GlcNAc
# In short: (§1)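 Negative Z-scores can be read as non-binding. The Z-score is calculated within each array and then averaged across arrays of one protein sequence at different concentrations or buffers and across linkers. Arrays, 3228 in all, were curated from the Consortium for Functional Glycomics database and kept only where the protein sequence was available.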
# [1] = molecular target: Gal(a1-3)Gal(b1-3)GlcNAc(b1-2)Man
# In short: as §1
# [2] = molecular target: Gal(a1-3)Gal(b1-3)GlcNAc(b1-2)Man(a1-3)[Gal(a1-3)Gal(b1-3)GlcNAc(b1-2)Man(a1-6)]Man(b1-4)GlcNAc(b1-4)GlcNAc
# In short: as §1
# [3] = molecular target: Gal(a1-3)Gal(b1-3)GlcNAc(b1-3)GalNAc
# In short: as §1
# [4] = molecular target: Gal(a1-3)Gal(b1-3)GlcNAc(b1-6)GalNAc
# In short: as §1
# [5] = molecular target: Gal(a1-3)Gal(b1-3)[Fuc(a1-4)]GlcNAc(b1-2)Man(a1-3)[Gal(a1-3)Gal(b1-3)[Fuc(a1-4)]GlcNAc(b1-2)Man(a1-6)]Man(b1-4)GlcNAc(b1-4)GlcNAc
# In short: as §1
# Gal(a1-3)Gal(b1-4)Glc = molecular target: Gal(a1-3)Gal(b1-4)Glc
# In short: as §1
# Gal(a1-3)Gal(b1-4)GlcNAc = molecular target: Gal(a1-3)Gal(b1-4)GlcNAc
# In short: as §1
# [6] = molecular target: Gal(a1-3)Gal(b1-4)GlcNAc(b1-2)Man
# In short: as §1
# [7] = molecular target: Gal(a1-3)Gal(b1-4)GlcNAc(b1-2)Man(a1-3)[Gal(a1-3)Gal(b1-4)GlcNAc(b1-2)Man(a1-6)]Man(b1-4)GlcNAc(b1-4)GlcNAc
# In short: as §1
# [8] = molecular target: Gal(a1-3)Gal(b1-4)GlcNAc(b1-3)GalNAc
# In short: as §1
# [9] = molecular target: Gal(a1-3)Gal(b1-4)GlcNAc(b1-6)GalNAc
# In short: as §1
# [10] = molecular target: Gal(a1-3)Gal(b1-4)[Fuc(a1-3)]GlcNAc
# In short: as §1
# [11] = molecular target: Gal(a1-3)Gal(b1-4)[Fuc(a1-3)]GlcNAc(b1-2)Man(a1-3)[Gal(a1-3)Gal(b1-4)[Fuc(a1-3)]GlcNAc(b1-2)Man(a1-6)]Man(b1-4)GlcNAc(b1-4)GlcNAc
# In short: as §1
# Gal(a1-3)GalNAc = molecular target: Gal(a1-3)GalNAc
# In short: as §1
# [12] = molecular target: Gal(a1-3)[Gal(a1-4)]Gal(b1-4)GlcNAc
# In short: as §1
# [13] = molecular target: Gal(a1-4)Gal(b1-3)GlcNAc(b1-2)Man(a1-3)[Gal(a1-4)Gal(b1-3)GlcNAc(b1-2)Man(a1-6)]Man(b1-4)GlcNAc(b1-4)GlcNAc
# In short: as §1
# Gal(a1-4)Gal(b1-4)Glc = molecular target: Gal(a1-4)Gal(b1-4)Glc
# In short: as §1
# Gal(a1-4)Gal(b1-4)GlcNAc = molecular target: Gal(a1-4)Gal(b1-4)GlcNAc
# In short: as §1
# [14] = molecular target: Gal(a1-4)Gal(b1-4)GlcNAc(b1-2)Man(a1-3)[Gal(a1-4)Gal(b1-4)GlcNAc(b1-2)Man(a1-6)]Man(b1-4)GlcNAc(b1-4)GlcNAc
# In short: as §1
# [15] = molecular target: Gal(a1-4)Gal(b1-4)GlcNAc(b1-3)Gal(b1-4)Glc
# In short: as §1
# Gal(a1-4)GlcNAc = molecular target: Gal(a1-4)GlcNAc
# In short: as §1
# Gal(a1-6)Glc = molecular target: Gal(a1-6)Glc
# In short: as §1
# Gal(b1-2)Gal = molecular target: Gal(b1-2)Gal
# In short: as §1
# Gal(b1-3)Gal = molecular target: Gal(b1-3)Gal
# In short: as §1
# Gal(b1-3)Gal(b1-4)GlcNAc = molecular target: Gal(b1-3)Gal(b1-4)GlcNAc
# In short: as §1
# Gal(b1-3)GalNAc = molecular target: Gal(b1-3)GalNAc
# In short: as §1
# [16] = molecular target: Gal(b1-3)GalNAc(a1-3)[Fuc(a1-2)]Gal(b1-4)Glc
# In short: as §1
# [17] = molecular target: Gal(b1-3)GalNAc(a1-3)[Fuc(a1-2)]Gal(b1-4)GlcNAc
# In short: as §1
# Gal(b1-3)GalNAc(b1-3)Gal = molecular target: Gal(b1-3)GalNAc(b1-3)Gal
# In short: as §1
# [18] = molecular target: Gal(b1-3)GalNAc(b1-3)Gal(a1-4)Gal(b1-4)Glc
# In short: as §1
# [19] = molecular target: Gal(b1-3)GalNAc(b1-4)Gal(b1-4)Glc
# In short: as §1
# [20] = molecular target: Gal(b1-3)GalNAc(b1-4)[Neu5Ac(a2-3)]Gal(b1-4)Glc
# In short: as §1
# Gal(b1-3)GlcNAc = molecular target: Gal(b1-3)GlcNAc
# In short: as §1
# [21] = molecular target: Gal(b1-3)GlcNAc(a1-3)Gal(b1-4)GlcNAc
# In short: as §1
# [22] = molecular target: Gal(b1-3)GlcNAc(a1-6)Gal(b1-4)GlcNAc
# In short: as §1
# Gal(b1-3)GlcNAc(b1-2)Man = molecular target: Gal(b1-3)GlcNAc(b1-2)Man
# In short: as §1
# [23] = molecular target: Gal(b1-3)GlcNAc(b1-2)Man(a1-3)[Gal(b1-3)GlcNAc(b1-2)Man(a1-6)]Man(b1-4)GlcNAc(b1-4)GlcNAc
# In short: as §1
binder,measurement,setting,value
B1,glycan array binding signal (z-score),Gal(a1-3)Gal(b1-3)GlcNAc,-0.097
same,glycan array binding signal (z-score),[1],-0.564
same,glycan array binding signal (z-score),[2],-0.036
same,glycan array binding signal (z-score),[3],0.142
same,glycan array binding signal (z-score),[4],-0.47
same,glycan array binding signal (z-score),[5],9.55
same,glycan array binding signal (z-score),Gal(a1-3)Gal(b1-4)Glc,-0.073
same,glycan array binding signal (z-score),Gal(a1-3)Gal(b1-4)GlcNAc,-0.28
same,glycan array binding signal (z-score),[6],0.165
same,glycan array binding signal (z-score),[7],0.85
same,glycan array binding signal (z-score),[8],-0.146
same,glycan array binding signal (z-score),[9],0.567
same,glycan array binding signal (z-score),[10],1.22
same,glycan array binding signal (z-score),[11],1.35
same,glycan array binding signal (z-score),Gal(a1-3)GalNAc,-0.387
same,glycan array binding signal (z-score),[12],-0.176
same,glycan array binding signal (z-score),[13],0.362
same,glycan array binding signal (z-score),Gal(a1-4)Gal(b1-4)Glc,-0.183
same,glycan array binding signal (z-score),Gal(a1-4)Gal(b1-4)GlcNAc,-0.499
same,glycan array binding signal (z-score),[14],-0.44
same,glycan array binding signal (z-score),[15],-0.507
same,glycan array binding signal (z-score),Gal(a1-4)GlcNAc,-0.058
same,glycan array binding signal (z-score),Gal(a1-6)Glc,0.077
same,glycan array binding signal (z-score),Gal(b1-2)Gal,-0.188
same,glycan array binding signal (z-score),Gal(b1-3)Gal,-0.344
same,glycan array binding signal (z-score),Gal(b1-3)Gal(b1-4)GlcNAc,-0.368
same,glycan array binding signal (z-score),Gal(b1-3)GalNAc,-0.269
same,glycan array binding signal (z-score),[16],-0.398
same,glycan array binding signal (z-score),[17],-0.376
same,glycan array binding signal (z-score),Gal(b1-3)GalNAc(b1-3)Gal,-0.222
same,glycan array binding signal (z-score),[18],-0.191
same,glycan array binding signal (z-score),[19],-0.025
same,glycan array binding signal (z-score),[20],-0.421
same,glycan array binding signal (z-score),Gal(b1-3)GlcNAc,-0.047
same,glycan array binding signal (z-score),[21],-0.293
same,glycan array binding signal (z-score),[22],-0.382
same,glycan array binding signal (z-score),Gal(b1-3)GlcNAc(b1-2)Man,-0.324
same,glycan array binding signal (z-score),[23],0.556
